Measurements from paper PMC5892938.
This is one part of the list. At the low end of the ranking the order means little.

Molecular target: GST-SBP-SLBP (stem-loop binding protein) (UniProt Q14493)
Experiment: targeted RNA Bind-n-Seq;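 further: DESeq read counts versus GST-SBP nonspecific binding control pulldown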
Settings: RBNS binding buffer: 25 mM Tris pH 7.5, 150 mM KCl, 3 mM MgCl2, 0.1% Tween, 0.5 mg/mL BSA, 1 mM DTT; 27 nM protein, 750 pM RNA pool; temperature not stated; high values mean tight binding

Row | Sequence | binding signal (log2 fold change)
1 | GGUCACGUCUCAAUCAACUCCAUAGAGGGGGGGAAAACCCCUUUACCCUCACCAUCAACAGCUCGCAGUCAAG | 0.0827
2 | GGUCACGUCUCAAUCAACUCAUCGUCCAGGGAAAGCCCUGGUUUAUUCAACAGCUCGCAGUCAAG | -0.236
3 | GGUCACGUCUCAAUCAACUCAUUUUCAGGAGUUUUCUCCUGCUAAUUCAACAGCUCGCAGUCAAG | -0.0203
4 | GGUCACGUCUCAAUCAACUCAAUCGAGGGGGGGAAAACCCCUUUGCCCUCAAAAUCAACAGCUCGCAGUCAAG | -0.263
5 | GGUCACGUCUCAAUCAACUCAUUUUCAGGAGUUUACUCCUGUAUUUUCAACAGCUCGCAGUCAAG | 0.0109
6 | GGUCACGUCUCAAUCAACUCCUAAGAGGGGGGGAAAACCCCUUUGCCCUCCAACUCAACAGCUCGCAGUCAAG | -0.0802
7 | GGUCACGUCUCAAUCAACUCUACUUCAGGAGUUUACUCCUGUAAUUUCAACAGCUCGCAGUCAAG | -0.112
8 | GGUCACGUCUCAAUCAACUCAUUCCCCAGGGAAAGCCCUGGUUUAUUCAACAGCUCGCAGUCAAG | -0.165
9 | GGUCACGUCUCAAUCAACUCAAUUUCAGGAGUUUUCUCCUGUAUAGUCAACAGCUCGCAGUCAAG | -0.203
10 | GGUCACGUCUCAAUCAACUCUUAAGAGGGGGGGAAAACCCCUUUGCCCUCCAUAUCAACAGCUCGCAGUCAAG | -0.000801
11 | GGUCACGUCUCAAUCAACUCUACUCCCAGGGAAACCCCUGGCAAACUCAACAGCUCGCAGUCAAG | -0.0669
12 | GGUCACGUCUCAAUCAACUCUACUUCAGGAGUUUCCUCCUGCUAUCUCAACAGCUCGCAGUCAAG | -0.141
13 | GGUCACGUCUCAAUCAACUCCUAAGAGGGGGGGAAAACCCCUUUACCCUCCCAAUCAACAGCUCGCAGUCAAG | 0.0544
14 | GGUCACGUCUCAAUCAACUCCCUAGAGGGGGGGAAAACCCCUUUACCCUCGUUUUCAACAGCUCGCAGUCAAG | -0.181
15 | GGUCACGUCUCAAUCAACUCUAACGAGGGGGGGAAAACCCCUUUGCCCUCAUAAUCAACAGCUCGCAGUCAAG | 0.0341
16 | GGUCACGUCUCAAUCAACUCAUUCCCAGGAGUUUUCUCCUGUAAUCUCAACAGCUCGCAGUCAAG | 0.0752
17 | GGUCACGUCUCAAUCAACUCUAUUUCAGGAGUUUACUCCUGCAUAUUCAACAGCUCGCAGUCAAG | -0.15
18 | GGUCACGUCUCAAUCAACUCAUUCCCCAGGGAAACCCCUGGCUAAUUCAACAGCUCGCAGUCAAG | -0.326
19 | GGUCACGUCUCAAUCAACUCUUCGUCAGGAGUUUUCUCCUGCUAAUUCAACAGCUCGCAGUCAAG | 0.146
20 | GGUCACGUCUCAAUCAACUCAAUUUCAGGAGUUUCCUCCUGCUUUCUCAACAGCUCGCAGUCAAG | 0.0293
21 | GGUCACGUCUCAAUCAACUCCCUAGAGGGGGGGAAAACCCCUUUGCCCUCACUAUCAACAGCUCGCAGUCAAG | -0.236
22 | GGUCACGUCUCAAUCAACUCUUUUUCCAGGGAAAUCCCUGGCAAAUUCAACAGCUCGCAGUCAAG | 0.152
23 | GGUCACGUCUCAAUCAACUCCAAAGAGGGGGGGAAAACCCCUUUGCCCUCAACCUCAACAGCUCGCAGUCAAG | -0.113
24 | GGUCACGUCUCAAUCAACUCUAUUUCCAGGGAAAACCCUGGCGUUUUCAACAGCUCGCAGUCAAG | -0.234
25 | GGUCACGUCUCAAUCAACUCAUCUUCCAGGGAAAACCCUGGUUUAUUCAACAGCUCGCAGUCAAG | -0.283

Row | Sequence | binding signal (log2 fold change)
26 | GGUCACGUCUCAAUCAACUCUACUUCAGGAGUUUCCUCCUGCAAUUUCAACAGCUCGCAGUCAAG | 0.185
27 | GGUCACGUCUCAAUCAACUCUUUUUCAGGAGUUUUCUCCUGCAAACUCAACAGCUCGCAGUCAAG | -0.0925
28 | GGUCACGUCUCAAUCAACUCAAUCCCCAGGGAAAGCCCUGGUAAUCUCAACAGCUCGCAGUCAAG | -0.102
29 | GGUCACGUCUCAAUCAACUCAUCUUCAGGAGUUUCCUCCUGUAUACUCAACAGCUCGCAGUCAAG | 0.0402
30 | GGUCACGUCUCAAUCAACUCUUUCCCCAGGGAAAACCCUGGUAUACUCAACAGCUCGCAGUCAAG | 0.104
31 | GGUCACGUCUCAAUCAACUCUUCUUCCAGGGAAAUCCCUGGUAUUCUCAACAGCUCGCAGUCAAG | 0.131
32 | GGUCACGUCUCAAUCAACUCUUCCCCCAGGGAAACCCCUGGUUUAUUCAACAGCUCGCAGUCAAG | -0.145
33 | GGUCACGUCUCAAUCAACUCAUUUCCAGGAGUUUCCUCCUGCAUAUUCAACAGCUCGCAGUCAAG | -0.172
34 | GGUCACGUCUCAAUCAACUCUAUUUCAGGAGUUUUCUCCUGUAUUCUCAACAGCUCGCAGUCAAG | -0.0653
35 | GGUCACGUCUCAAUCAACUCUAUCCCAGGAGUUUCCUCCUGCUAACUCAACAGCUCGCAGUCAAG | 0.0883
36 | GGUCACGUCUCAAUCAACUCUUCUUCCAGGGAAAUCCCUGGUUAACUCAACAGCUCGCAGUCAAG | 0.0795
37 | GGUCACGUCUCAAUCAACUCAAUUCCCAGGGAAAACCCUGGCUAACUCAACAGCUCGCAGUCAAG | 0.285
38 | GGUCACGUCUCAAUCAACUCUUUCCCCAGGGAAAACCCUGGUAAUGUCAACAGCUCGCAGUCAAG | -0.0128
39 | GGUCACGUCUCAAUCAACUCUUCUUCAGGAGUUUUCUCCUGCAUUUUCAACAGCUCGCAGUCAAG | -0.0852
40 | GGUCACGUCUCAAUCAACUCUUCGUCAGGAGUUUUCUCCUGCAUUCUCAACAGCUCGCAGUCAAG | -0.000341
41 | GGUCACGUCUCAAUCAACUCUUCUUCAGGAGUUUCCUCCUGUUAAUUCAACAGCUCGCAGUCAAG | -0.078
42 | GGUCACGUCUCAAUCAACUCAAUCUCCAGGGAAAUCCCUGGUUUUCUCAACAGCUCGCAGUCAAG | -0.0158
43 | GGUCACGUCUCAAUCAACUCCAUAGAGGGGGGGAAAACCCCUUUGCCCUCAACAUCAACAGCUCGCAGUCAAG | -0.501
44 | GGUCACGUCUCAAUCAACUCUAUUCCCAGGGAAAACCCUGGUUUAUUCAACAGCUCGCAGUCAAG | -0.146
45 | GGUCACGUCUCAAUCAACUCUAUAGAGGGGGGGAAAACCCCUUUACCCUCACAAUCAACAGCUCGCAGUCAAG | -0.4
46 | GGUCACGUCUCAAUCAACUCAAUCCCAGGAGUUUUCUCCUGCUUUUUCAACAGCUCGCAGUCAAG | -0.15
47 | GGUCACGUCUCAAUCAACUCUUCGCCAGGAGUUUCCUCCUGUAUUCUCAACAGCUCGCAGUCAAG | 0.108
48 | GGUCACGUCUCAAUCAACUCCCUAGAGGGGGGGAAAACCCCUUUGCCCUCACAUUCAACAGCUCGCAGUCAAG | -0.0224
49 | GGUCACGUCUCAAUCAACUCAUCCCCCAGGGAAAACCCUGGCUAUCUCAACAGCUCGCAGUCAAG | -0.0217
50 | GGUCACGUCUCAAUCAACUCAUUCUCAGGAGUUUGCUCCUGCAAUUUCAACAGCUCGCAGUCAAG | 0.178

Row | Sequence | binding signal (log2 fold change)
51 | GGUCACGUCUCAAUCAACUCAUAAGAGGGGGGGAAAACCCCUUUACCCUCCACAUCAACAGCUCGCAGUCAAG | -0.538
52 | GGUCACGUCUCAAUCAACUCAUUUCCCAGGGAAAACCCUGGUAAUUUCAACAGCUCGCAGUCAAG | -0.0238
53 | GGUCACGUCUCAAUCAACUCUUUCUCCAGGGAAAGCCCUGGCAAACUCAACAGCUCGCAGUCAAG | -0.18
54 | GGUCACGUCUCAAUCAACUCUUCCCCCAGGGAAAUCCCUGGUUUUUUCAACAGCUCGCAGUCAAG | -0.17
55 | GGUCACGUCUCAAUCAACUCAUUCCCAGGAGUUUCCUCCUGCUAUCUCAACAGCUCGCAGUCAAG | 0.0283
56 | GGUCACGUCUCAAUCAACUCUACUUCAGGAGUUUCCUCCUGUAAACUCAACAGCUCGCAGUCAAG | -0.021
57 | GGUCACGUCUCAAUCAACUCAUUCCCAGGAGUUUCCUCCUGUAAUUUCAACAGCUCGCAGUCAAG | 0.192
58 | GGUCACGUCUCAAUCAACUCAUUUCCAGGAGUUUCCUCCUGUAUACUCAACAGCUCGCAGUCAAG | -0.0904
59 | GGUCACGUCUCAAUCAACUCAUUCGCAGGAGUUUCCUCCUGGUUUCUCAACAGCUCGCAGUCAAG | 0.089
60 | GGUCACGUCUCAAUCAACUCAUUUCCCAGGGAAACCCCUGGUAUACUCAACAGCUCGCAGUCAAG | 0.0642
61 | GGUCACGUCUCAAUCAACUCCUACGAGGGGGGGAAAACCCCUUUACCCUCACUCUCAACAGCUCGCAGUCAAG | -0.23
62 | GGUCACGUCUCAAUCAACUCUUCUUCCAGGGAAACCCCUGGUAUAUUCAACAGCUCGCAGUCAAG | 0.0858
63 | GGUCACGUCUCAAUCAACUCAUCCUCCAGGGAAAUCCCUGGUUUACUCAACAGCUCGCAGUCAAG | 0.173
64 | GGUCACGUCUCAAUCAACUCAAUCCCAGGAGUUUCCUCCUGCUAACUCAACAGCUCGCAGUCAAG | 0.303
65 | GGUCACGUCUCAAUCAACUCUUCCUCAGGAGUUUUCUCCUGCAAUCUCAACAGCUCGCAGUCAAG | -0.0543
66 | GGUCACGUCUCAAUCAACUCUAUGUCCAGGGAAAACCCUGGUUUUUUCAACAGCUCGCAGUCAAG | -0.00335
67 | GGUCACGUCUCAAUCAACUCUUUUUCCAGGGAAACCCCUGGUUUUCUCAACAGCUCGCAGUCAAG | -0.0114
68 | GGUCACGUCUCAAUCAACUCUUCCCCCAGGGAAAUCCCUGGUUAACUCAACAGCUCGCAGUCAAG | -0.173
69 | GGUCACGUCUCAAUCAACUCUAGUCCAGGAGUUUCCUCCUGCAAUUUCAACAGCUCGCAGUCAAG | -0.0796
70 | GGUCACGUCUCAAUCAACUCUAUUUCCAGGGAAACCCCUGGCUUUCUCAACAGCUCGCAGUCAAG | 0.0364
71 | GGUCACGUCUCAAUCAACUCAUUCCCCAGGGAAAUCCCUGGUAAUCUCAACAGCUCGCAGUCAAG | 0.273
72 | GGUCACGUCUCAAUCAACUCUUUCUCAGGAGUUUCCUCCUGUUUUCUCAACAGCUCGCAGUCAAG | 0.131
73 | GGUCACGUCUCAAUCAACUCUUCCUCCAGGGAAACCCCUGGUUAUUUCAACAGCUCGCAGUCAAG | 0.102
74 | GGUCACGUCUCAAUCAACUCUUUUCCAGGAGUUUUCUCCUGUUAUUUCAACAGCUCGCAGUCAAG | 0.0118
